# Among all 39,000 compounds or so, about 220 (0.56%) showed activity. This is one part of the list.
# Tested on: Escherichia coli K-12 BW25113
# Assay: relative growth (OD600 normalised to plate interquartile mean) (fraction); higher = less growth inhibition, active = 0.2 or less
# Settings: 50 µM; LB; incubation time: overnight (16-24 h)
# 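Further: static incubation at 37 °C against the wild-type strain, values averaged over two biological replicates.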
row,Compound,relative growth
1,C[C@@H]1CN([C@@H](C)CO)C(=O)CCCn2nncc2CO[C@@H]1CN(C)S(=O)(=O)c1ccc(C#N)cc1,inactive: 1.01
2,C[C@H](CO)N1C[C@H](C)[C@H](CN(C)C(=O)Nc2ccc3c(c2)OCO3)OCCCC[C@H](C)Oc2ccc(NC(=O)c3ccccc3)cc2C1=O,inactive: 1.05
3,Cc1noc(C)c1S(=O)(=O)Nc1ccc2c(c1)C(=O)N([C@@H](C)CO)C[C@@H](C)[C@@H](CN(C)S(=O)(=O)c1ccc(F)cc1)O2,inactive: 1
4,C[C@H](CO)N1C[C@H](C)[C@@H](CN(C)S(=O)(=O)c2ccc(-n3cccn3)cc2)OCc2cnnn2CCCC1=O,inactive: 0.997
5,O=C(Cn1nncc1COc1ccc2ccccc2c1)NS(=O)(=O)c1ccccc1OC(F)(F)F,inactive: 0.988
6,COc1ccc(S(=O)(=O)Nc2ccc3c(c2)C(=O)N([C@H](C)CO)C[C@@H](C)[C@H](CN(C)S(=O)(=O)c2ccc(F)cc2)O3)cc1,inactive: 1.01
7,C[C@@H]1CN([C@H](C)CO)C(=O)c2cc(NS(=O)(=O)c3ccc(Cl)cc3)ccc2O[C@@H](C)CCCCO[C@H]1CN(C)S(=O)(=O)c1ccc(Cl)cc1,inactive: 0.993
8,CCOc1nc2cccc(C(=O)OC(C)OC(=O)OC3CCCCC3)c2n1Cc1ccc(-c2ccccc2-c2nnn[nH]2)cc1 (configuration not stated),inactive: 0.795
9,COc1ccc(cc1)CN1CC[C@]2(CC1)CN([C@H](CO)c1[nH]c3cc(ccc3c12)OC)C(=O)CN(C)C,inactive: 0.98
10,COC(=O)C1=C(C)NC(C)=C(C(=O)OCCN2CCN(C(c3ccccc3)c3ccccc3)CC2)C1c1cccc([N+](=O)[O-])c1 (configuration not stated),inactive: 1.17
11,Cn1nnc2c(N3CCCC3)ncnc21,inactive: 1
12,Cc1noc(C)c1S(=O)(=O)N(C)C[C@H]1Oc2ccc(NC(=O)NC(C)C)cc2CC(=O)N([C@H](C)CO)C[C@@H]1C,inactive: 0.962
13,C[C@@H]1CCCCO[C@H](CN(C)Cc2ccc(C(=O)O)cc2)[C@@H](C)CN([C@@H](C)CO)C(=O)c2cc(NC(=O)CCC(F)(F)F)ccc2O1,inactive: 1.02
14,CC(C)NC(=O)N(C)C[C@@H]1Oc2c(NC(=O)C3CCOCC3)cccc2C(=O)N([C@@H](C)CO)C[C@H]1C,inactive: 0.977
15,C[C@@H]1CCCCO[C@H](CN(C)C(=O)NC2CCCCC2)[C@@H](C)CN([C@H](C)CO)C(=O)c2cc(NC(=O)Nc3ccc(F)cc3)ccc2O1,inactive: 0.984
16,COCCCNC(=O)C[C@H]1SC(=N)NC1=O,inactive: 1.02
17,Cc1ccc(C)c(Cc2cc(Cl)ccc2Cl)c1,inactive: 0.891
18,C[C@@H]1CCCCO[C@@H](CN(C)S(=O)(=O)c2cccs2)[C@@H](C)CN([C@H](C)CO)C(=O)c2cc(NS(C)(=O)=O)ccc2O1,inactive: 0.943
19,Cc1noc(C)c1S(=O)(=O)Nc1ccc2c(c1)CC(=O)N([C@@H](C)CO)C[C@@H](C)[C@H](CN(C)Cc1ccncc1)O2,inactive: 0.998

row,Compound,relative growth
1,C[C@H](CO)N1C[C@H](C)[C@@H](CN(C)C(=O)Cc2ccccc2)OCCCC[C@H](C)Oc2ccc(NS(=O)(=O)c3ccc(F)cc3)cc2C1=O,inactive: 0.992
2,C[C@@H]1CN([C@@H](C)CO)C(=O)c2cc(NC(=O)C3CCCCC3)ccc2O[C@H]1CN(C)Cc1ccc(C(F)(F)F)cc1,inactive: 1.03
3,Cc1noc(C)c1NC(=O)Nc1ccc2c(c1)C(=O)N([C@H](C)CO)C[C@H](C)[C@H](CN(C)Cc1ccc(Cl)c(Cl)c1)OCCCC[C@H](C)O2,inactive: 1.02
4,C[C@@H]1CN([C@@H](C)CO)C(=O)c2cccc(NC(=O)C3CC3)c2O[C@H]1CN(C)C(=O)Nc1ccc2c(c1)OCO2,inactive: 1
5,COc1cc2c(cc1OC)CN(C(=O)[C@H]1[C@@H]3C(=O)O[C@@H](c4ccccc4)[C@@H](c4ccccc4)N3[C@@H](c3ccc(O)cc3)[C@]13C(=O)Nc1ccc(C#CC4(O)CCCCCC4)cc13)CC2,inactive: 1.03
6,O=C(C[C@@H]1C[C@@H]2c3cc(NC(=O)c4ccc5c(c4)OCO5)ccc3O[C@@H]2[C@H](CO)O1)NCCc1ccccc1,inactive: 1.01
7,C[C@@H]1CCCCO[C@@H](CN(C)S(C)(=O)=O)[C@@H](C)CN([C@H](C)CO)C(=O)c2cc(NS(C)(=O)=O)ccc2O1,inactive: 1.04
8,C[C@H](CO)N1C[C@H](C)[C@@H](CN(C)C(=O)Nc2ccc(C(F)(F)F)cc2)Oc2c(NC(=O)Nc3ccc(C(F)(F)F)cc3)cccc2C1=O,inactive: 0.952
9,C[C@@H]1CCCCO[C@H](CN(C)C(=O)C2CCCCC2)[C@H](C)CN([C@H](C)CO)C(=O)c2cc(NS(=O)(=O)c3ccc(Cl)cc3)ccc2O1,inactive: 1.01
10,CCS(=O)(=O)NCC[C@@H]1CC[C@H](NC(=O)Cc2ccccn2)[C@@H](CO)O1,inactive: 1.02
11,CC(O)C1C(=O)N2C(C(=O)O)=C(SC3CNC(C(=O)N(C)C)C3)C(C)C12 (configuration not stated),active: 0.0517
12,O=C(CN1CCOCC1)N[C@H]1CC[C@H](CCn2cc(C3CCCC3)nn2)O[C@@H]1CO,inactive: 0.963
13,C[C@@H]1CN([C@H](C)CO)S(=O)(=O)c2ccc(C#CCN(C)C)cc2O[C@H]1CN(C)C(=O)CN(C)C,inactive: 1
14,COc1ccc(S(=O)(=O)N(C)C[C@H]2OCCCC[C@@H](C)Oc3ccc(NC(=O)Nc4ccc5c(c4)OCO5)cc3C(=O)N([C@@H](C)CO)C[C@H]2C)cc1,inactive: 1.02
15,COc1ccc(NC(=O)Nc2ccc3c(c2)C(=O)N([C@H](C)CO)C[C@H](C)[C@H](CN(C)Cc2ccc(C(=O)O)cc2)OCCCC[C@@H](C)O3)cc1,inactive: 1.01
16,Cc1cc(C(=O)Nc2cccc3c2O[C@H](CN(C)S(=O)(=O)c2ccccc2)[C@H](C)CN([C@H](C)CO)C3=O)n(C)n1,inactive: 1.01
17,COc1ccc(S(=O)(=O)N2C[C@H](O)COC[C@@H]3O[C@H](CC(=O)NCCCN(C)C)CC[C@H]32)cc1,inactive: 1.02
18,C[C@@H](O)C#Cc1ccc2c(c1)O[C@H](CN(C)C(=O)C1CCCCC1)[C@@H](C)CN([C@@H](C)CO)S2(=O)=O,inactive: 1.02

# From the supplement of paper PMC9446081
